± gives the standard deviation of the averaged measurements. In all, about 33,000 sequences were measured (“E-score (dimensionless, -0.5 to 0.5)”: median about -0.046, highest 2% from about 0.36 on). Some of the results follow.
These sequences were tested on T1, SpTbr T-box DNA-binding domain (GST fusion) (assay: PBM E-score of 8-mer (E-score (dimensionless, -0.5 to 0.5)); Tbr is Tbrain of the sea star Patiria miniata (Pm) or the sea urchin Strongylocentrotus purpuratus (Sp); higher = stronger binding preference; most listed sequences are background and not binding sites). Conditions: the construct has about 5 more residues each side.
T1 sequence: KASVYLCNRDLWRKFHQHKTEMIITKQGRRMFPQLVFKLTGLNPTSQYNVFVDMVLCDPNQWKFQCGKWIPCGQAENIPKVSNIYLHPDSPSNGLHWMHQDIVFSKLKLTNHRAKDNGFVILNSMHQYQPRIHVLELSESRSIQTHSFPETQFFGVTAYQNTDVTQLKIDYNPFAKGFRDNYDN
Summary of the method: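 Primer extension turned Universal Agilent oligonucleotide arrays double-stranded. They were incubated with 200 nM protein in PBS (pH 7.5); the protein was a GST-fused Tbr T-box DNA-binding domain expressed in BL21 E. coli at 20 °C and purified on glutathione. Every ungapped 8-mer was scored from the scanned, quantified probe intensities, and the Universal PBM Analysis Suite gave each an enrichment E-score averaged over duplicate arrays.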
With TGGTCGAA the “PBM E-score of 8-mer” value was -0.131 ± 0.049.
With GATTTGTA the “PBM E-score of 8-mer” value was -0.145 ± 0.019.
In the case of GTTGTTGA, the “PBM E-score of 8-mer” value is reported as 0.239 ± 0.044.
CGCTTTAG was tested, and the “PBM E-score of 8-mer” value was -0.0469 ± 0.0032.
AGAATGCC was tested, and the “PBM E-score of 8-mer” value was -0.229 ± 0.038.
GAAATGAC was tested, and the “PBM E-score of 8-mer” value was 0.12 ± 0.065.
AATTTTGC was tested, and the “PBM E-score of 8-mer” value was -0.00565 ± 0.0049.
AAGCCCTG was tested, and the “PBM E-score of 8-mer” value was -0.226 ± 0.021.
In the case of AATATGCG, the “PBM E-score of 8-mer” value is reported as 0.116 ± 0.052.
GCAGGACC was tested, and the “PBM E-score of 8-mer” value was -0.0831 ± 0.1.
CCACTATA was tested, and the “PBM E-score of 8-mer” value was 0.0162 ± 0.05.
In the case of GTTTCCGA, the “PBM E-score of 8-mer” value is reported as -0.0578 ± 0.048.
In the case of GCCGGAGC, the “PBM E-score of 8-mer” value is reported as -0.199 ± 0.066.
CCCATTCG was tested, and the “PBM E-score of 8-mer” value was -0.14 ± 0.0048.
For CAGCATCG, the “PBM E-score of 8-mer” value was 0.0113 ± 0.0051.
With AGGGATTC the “PBM E-score of 8-mer” value was -0.18 ± 0.03.
In the case of CGCTGGCA, the “PBM E-score of 8-mer” value is reported as 0.211 ± 0.023.
With CCATATGC the “PBM E-score of 8-mer” value was -0.0336 ± 0.025.
With CCTATTAG the “PBM E-score of 8-mer” value was -0.06 ± 0.066.
In the case of CCCCATAA, the “PBM E-score of 8-mer” value is reported as -0.273 ± 0.024.
In the case of ACTCGCCG, the “PBM E-score of 8-mer” value is reported as 0.131 ± 0.01.
For CATCCCGC, the “PBM E-score of 8-mer” value was -0.132 ± 0.064.
For CAGACTCA, the “PBM E-score of 8-mer” value was -0.0949 ± 0.051.
With GTACACCA the “PBM E-score of 8-mer” value was -0.0592 ± 0.12.
For ATACGAGG, the “PBM E-score of 8-mer” value was -0.3792 ± 0.0018.
For AGCCGCGA, the “PBM E-score of 8-mer” value was 0.276 ± 0.029.
GGACGATA was tested, and the “PBM E-score of 8-mer” value was 0.0235 ± 0.059.
With CGTCGCGC the “PBM E-score of 8-mer” value was 0.2094 ± 0.0019.
For GATTCCGA, the “PBM E-score of 8-mer” value was -0.0984 ± 0.059.
AAACTAGT was tested, and the “PBM E-score of 8-mer” value was -0.153 ± 0.08.
For ATGAGCGC, the “PBM E-score of 8-mer” value was -0.145 ± 0.025.
With AAAGATTA the “PBM E-score of 8-mer” value was -0.192 ± 0.033.
In the case of CGCTCTTC, the “PBM E-score of 8-mer” value is reported as -0.132 ± 0.037.
For GGACAGAA, the “PBM E-score of 8-mer” value was -0.164 ± 0.067.
With TCGCCTAA the “PBM E-score of 8-mer” value was -0.0189 ± 0.12.
With CCTAACAG the “PBM E-score of 8-mer” value was 0.0988 ± 0.11.
In the case of ACGTTATG, the “PBM E-score of 8-mer” value is reported as 0.082 ± 0.013.
In the case of CATGGCTA, the “PBM E-score of 8-mer” value is reported as -0.27 ± 0.059.
With GCTTATTA the “PBM E-score of 8-mer” value was -0.086 ± 0.061.
With AACTCGAA the “PBM E-score of 8-mer” value was -0.00982 ± 0.018.
For AGCTCATC, the “PBM E-score of 8-mer” value was -0.24 ± 0.004.
For CGCAGTAC, the “PBM E-score of 8-mer” value was 0.115 ± 0.007.
For GACGGGCA, the “PBM E-score of 8-mer” value was -0.2934 ± 0.0011.
With CGTTCAAC the “PBM E-score of 8-mer” value was -0.173 ± 0.047.
CTTGCTGC was tested, and the “PBM E-score of 8-mer” value was -0.0321 ± 0.069.
With GATGCAAC the “PBM E-score of 8-mer” value was -0.143 ± 0.02.
For CTAGATCA, the “PBM E-score of 8-mer” value was -0.142 ± 0.064.
ACCGTGAG was tested, and the “PBM E-score of 8-mer” value was 0.179 ± 0.03.
For TTAAGGAA, the “PBM E-score of 8-mer” value was 0.0228 ± 0.052.
For ACACGAAG, the “PBM E-score of 8-mer” value was 0.0299 ± 0.029.
With AGGAAAGG the “PBM E-score of 8-mer” value was -0.0689 ± 0.11.
In the case of AAATGTTC, the “PBM E-score of 8-mer” value is reported as -0.0543 ± 0.022.
With CTTTGAGA the “PBM E-score of 8-mer” value was -0.0749 ± 0.054.
For ATTCCGCA, the “PBM E-score of 8-mer” value was -0.0472 ± 0.016.
In the case of AACCCATG, the “PBM E-score of 8-mer” value is reported as -0.0687 ± 0.051.
In the case of CCCCCTTC, the “PBM E-score of 8-mer” value is reported as -0.173 ± 0.023.
With CAACATTC the “PBM E-score of 8-mer” value was 0.0397 ± 0.048.
TGCCACAA was tested, and the “PBM E-score of 8-mer” value was 0.117 ± 0.015.
In the case of CGTTACGC, the “PBM E-score of 8-mer” value is reported as -0.0437 ± 0.0086.
CTAAAAGC was tested, and the “PBM E-score of 8-mer” value was -0.0587 ± 0.058.
AGCGCTTC was tested, and the “PBM E-score of 8-mer” value was -0.0142 ± 0.07.
CCCGAACG was tested, and the “PBM E-score of 8-mer” value was -0.228 ± 0.019.
For CAAAATGG, the “PBM E-score of 8-mer” value was -0.184 ± 0.036.
With TAACGGAA the “PBM E-score of 8-mer” value was -0.0621 ± 0.14.
With CACTTGGG the “PBM E-score of 8-mer” value was 0.295 ± 0.032.
With ACCCGGGT the “PBM E-score of 8-mer” value was 0.0256 ± 0.038.
AAGAGCAT was tested, and the “PBM E-score of 8-mer” value was -0.115 ± 0.075.
In the case of ACATGGTG, the “PBM E-score of 8-mer” value is reported as 0.275 ± 0.022.
For ACGGGACC, the “PBM E-score of 8-mer” value was -0.226 ± 0.0053.
In the case of CTCGAGGA, the “PBM E-score of 8-mer” value is reported as 0.126 ± 0.0096.
In the case of ATGGCAAG, the “PBM E-score of 8-mer” value is reported as 0.125 ± 0.045.
For AGTATCAG, the “PBM E-score of 8-mer” value was -0.15 ± 0.0022.
CTGATCCC was tested, and the “PBM E-score of 8-mer” value was -0.0431 ± 0.068.
CTACATAG was tested, and the “PBM E-score of 8-mer” value was -0.0403 ± 0.05.
In the case of AAGCTCAC, the “PBM E-score of 8-mer” value is reported as 0.153 ± 0.024.
AGATGGCT was tested, and the “PBM E-score of 8-mer” value was -0.0768 ± 0.061.
For CCCCTCGG, the “PBM E-score of 8-mer” value was -0.255 ± 0.051.
For ACCACGAC, the “PBM E-score of 8-mer” value was -0.0488 ± 0.1.
With GCTTGCGA the “PBM E-score of 8-mer” value was 0.16 ± 0.0045.
For ATTCATTG, the “PBM E-score of 8-mer” value was -0.223 ± 0.079.
In the case of ATAAGTGA, the “PBM E-score of 8-mer” value is reported as 0.217 ± 0.063.
In the case of AGCTGCCC, the “PBM E-score of 8-mer” value is reported as -0.174 ± 0.096.
With AGCGTAGA the “PBM E-score of 8-mer” value was -0.0444 ± 0.021.
With AATCAGGA the “PBM E-score of 8-mer” value was -0.224 ± 0.017.
For GCCAATAC, the “PBM E-score of 8-mer” value was -0.0685 ± 0.058.
ATCACATG was tested, and the “PBM E-score of 8-mer” value was 0.268 ± 0.0082.

Reference: the supplement of paper PMC4166925
